PMC12136788
The list shows a part of the results.

B1: chr2:198351390:198351391:-_ENSG00000144381_ENST00000345042|hu_hu|hu_hu_hu_mus_False|18_88 (ssRNA)
RNA: GGGAGUUCUACAGUCCGACGAUCUCAUUCCCACCCUCCACAGAAAGGCUGCUUAACAACUCUCAUGUGGUGACACAGCGCUACAGUCCUGAUGCUCACAGAACAGUAGAGAUGCCUCCUCAGUGAUAGUUGAAAGCAGGACACCAACAGAGGAUUGAGCAUCA
B2: chr15:98684510:98684511:-_ENSMUSG00000048154_ENSMUST00000023741|mus_hu|FALSE|FALSE (ssRNA)
RNA: GGGAGUUCUACAGUCCGACGAUCGGCCUUUUGCAGGUAGGGGGCUUUGUCAGCUGCUGGAACCUUUCUCCAGAGCUUCAUGAUUUGUUUGCAACGGCUUGACCAGUCUGGGUAGUCUUGCUUGAGAUUAGGAAAAUUAAUGUUCAACAGAGGAUUGAGCAUCA
B3: 124814293_124814413_2385_3pUTR_ENSG00000196177_ENST00000358776|human|control|control (ssRNA)
RNA: GGGAGUUCUACAGUCCGACGAUCAUAAAGUGCAAUAACCAUGACUGAAGAAACAGUAUUCAAUUAAAAUACAGAAAUUGUCAACUGAAAAAUAGUGCAUGACAGAAUAUCCAACACUGUAUUGAAUAUUUUCUGAUUAUUAAACAACAGAGGAUUGAGCAUCA
B4: chr10:33190432:33190433:-_ENSG00000150093_ENST00000302278|hu_mus|hu_hu_hu_mus_True|28_88 (ssRNA)
RNA: GGGAGUUCUACAGUCCGACGAUCUACAUUUUCCAAACCUGCAUGUGAGUAAAACCAUGGCCACAGAGCCCCAAAACUACCCUACUGUGACUAAGAUGCUGCUGCUGUUGCAUUCAGGUUGCAAAAUCCGCCUGAGUAGGAUUCCAACAGAGGAUUGAGCAUCA
B5: chr14:76904430:76904431:+_ENSMUSG00000022010_ENSMUST00000022587|mus_hu|FALSE|FALSE (ssRNA)
RNA: GGGAGUUCUACAGUCCGACGAUCUGCAGCCAAAAACACCCUCGUGGAAAAAAAGAGGGAACACCAGCAGCCUUGUAUAAGCUAGAUAAAAUCUUCUGGCUUUCCGCAGCCCAGGGAGAAACAGAAAACGGCAGCCCUAAUUUACAACAGAGGAUUGAGCAUCA
B6: chr10:5838811:5838812:-_ENSG00000057608_ENST00000380191|hu_mus|FALSE|FALSE (ssRNA)
RNA: GGGAGUUCUACAGUCCGACGAUCAACAUUCCAGUCUCUUCCUCUUCCCAUUGAUGCUGGCGGUUGUCCUGGUAAUUUAAACCUUUUGUAUAAAUCUUCCAGCGGUGUUAUAGACGCACUUUCUCCUCCAUAGUAUGGGUUCUGCAACAGAGGAUUGAGCAUCA
B7: chr11:10818680:10818681:-_ENSG00000110321_ENST00000525681|hu_hu|motif|central (ssRNA)
RNA: GGGAGUUCUACAGUCCGACGAUCUAUAUAAAAUCAGGGCAUGAACAUGACUUGAUAAAUUAAGUAGACUUAAUUUCAAUACGGUAAUAGGAGGGACCAAUUCAAAUUCUCACCAUUUGUUUCACACCCACAAAAACCACUUCACAACAGAGGAUUGAGCAUCA
B8: chr10:94818082:94818083:+_ENSG00000138190_ENST00000260762|hu_mus|motif|central (ssRNA)
RNA: GGGAGUUCUACAGUCCGACGAUCCUACGUGUGCUGGGACAUACCAGUCACCAAGCCUCUGAGCUGUCUCACCACUGUCUCGGUCAGCUUCUGUCUGUCUCGGUCAUUCUUCCGGAACUGGGCGAAUAUGUUAUUCUUCUUGCUCAACAGAGGAUUGAGCAUCA
B9: chr2:120151847:120151848:-_ENSMUSG00000027291_ENSMUST00000028752|mus_mus|FALSE|FALSE (ssRNA)
RNA: GGGAGUUCUACAGUCCGACGAUCCUUGGACUUGAUGGUGGGAGUGCCCUCCAUGAGCGGGGAGGUGCUGGACUGGUGAUCCGAGUCAUUCAGCUUCUUUACCAACUGGCUCCGUUUCUGUGUCAGGUAGUCAAUGAGAGCUAACAACAGAGGAUUGAGCAUCA
B10: chr8:117878989:117878990:-_ENSG00000164754_ENST00000297338|hu_hu|hu_hu_hu_mus_True|28_38 (ssRNA)
RNA: GGGAGUUCUACAGUCCGACGAUCCCAGAGGCCCUCGUUUACUGAGGACAAAAUGUGCGUAGAACAUUUUUCUUAUUUGCUAUGAAAUAAGAAGAAAACCUUGCUCUCCGCUGGGAGCGGGAGGGGUGGGUGGCCCGGGGAGGGCAACAGAGGAUUGAGCAUCA
B11: chr3:10015032:10015033:+_ENSMUSG00000027533_ENSMUST00000029046|mus_mus|mus_mus_mus_hu_True|1_8 (ssRNA)
RNA: GGGAGUUCUACAGUCCGACGAUCGUUUUUACCAUCACAAGUGAUGAUACAAUCUGGCUUGGCCAUUGCGCCCAUUUUUCGCAAAGCUAUUCCCACUCCUAGCUCCUUCAUGUAUUCAUCAAAGCCUUGGCUUUCCAUCAGGCGCAACAGAGGAUUGAGCAUCA
B12: 14025072_14025192_4080_CDS_ENSMUSG00000068036_ENSMUST00000139666|mouse|control|control (ssRNA)
RNA: GGGAGUUCUACAGUCCGACGAUCACUCUUGGUCAGAGUGGAAGCAGGGGUAACUGACUUGGAAGAAUGGUUCAGGUGUUCCUGGCUGGAUGUGCUGGAUUCCACUGAGGAGCUCUGAUUGAUCCACAUAUCACUGUCACACUUCAACAGAGGAUUGAGCAUCA
B13: 80334887_80335007_2594_3pUTR_ENSG00000156052_ENST00000286548|human|control|control (ssRNA)
RNA: GGGAGUUCUACAGUCCGACGAUCAACCAAUGUUCCUGGCAGACUUCAUUGAACUUAAAGAACCACUGAGAGUAAAACUGGUUUCAAAUAAAGAGACAUAAACAGAUUUCCUGUUAAACCACACAGGAUACUUUUUACAUUGCCCAACAGAGGAUUGAGCAUCA
B14: chr10:121026873:121026874:-_ENSMUSG00000034667_ENSMUST00000039810|mus_hu|FALSE|FALSE (ssRNA)
RNA: GGGAGUUCUACAGUCCGACGAUCUCUUUUGUAGAAUACAUAUUGGCGUUGAAACAGUUUAAAGAAAUGAAAUGGCUAUCUACAAAAAGUUAGUUUUGAUUGCUGUCUUCCCCCAUACUUUGUGUCUUCACACAUAAAGAAAAUCAACAGAGGAUUGAGCAUCA

The binders below were run against T1, UNK ZnF1-3 (human, UniProt Q9C0B0 31-174) (assay: nsRBNS (natural sequence RNA bind-n-seq); RBNS binding buffer (assumed for nsRBNS): 25 mM Tris pH 7.5, 150 mM KCl, 3 mM MgCl2, 0.01% Triton X-100, 500 ug/ml BSA, 20 U/ml SUPERase-In, 4 C; UNK is unkempt and MSI1 is Musashi-1; names of the RNAs are library labels; protein concentration not given here; high values mean tight binding).
T1 sequence: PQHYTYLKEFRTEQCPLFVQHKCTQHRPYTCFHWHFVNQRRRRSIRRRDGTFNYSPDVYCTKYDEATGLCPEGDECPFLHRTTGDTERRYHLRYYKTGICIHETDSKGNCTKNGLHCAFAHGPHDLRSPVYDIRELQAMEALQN

Binder	binding signal [enrichment R]
B1	0.852
B2	0.786
B3	1.48
B4	1.01
B5	2.63
B6	0.747
B7	1.61
B8	0.438
B9	0.603
B10	1.25
B11	0.669
B12	0.874
B13	0.998
B14	1.11
